{
  "source": "the supplement of paper PMC10681739",
  "note": "The full ranking holds about 2,700 sequences; the median of “arbitrary fluorescence units” is about 4,100, and the highest 2% start at about 54,000. This is one part of the list.",
  "data": [
    {"target": "T1, ETS1 (UniProt P14921)", "T1 sequence": "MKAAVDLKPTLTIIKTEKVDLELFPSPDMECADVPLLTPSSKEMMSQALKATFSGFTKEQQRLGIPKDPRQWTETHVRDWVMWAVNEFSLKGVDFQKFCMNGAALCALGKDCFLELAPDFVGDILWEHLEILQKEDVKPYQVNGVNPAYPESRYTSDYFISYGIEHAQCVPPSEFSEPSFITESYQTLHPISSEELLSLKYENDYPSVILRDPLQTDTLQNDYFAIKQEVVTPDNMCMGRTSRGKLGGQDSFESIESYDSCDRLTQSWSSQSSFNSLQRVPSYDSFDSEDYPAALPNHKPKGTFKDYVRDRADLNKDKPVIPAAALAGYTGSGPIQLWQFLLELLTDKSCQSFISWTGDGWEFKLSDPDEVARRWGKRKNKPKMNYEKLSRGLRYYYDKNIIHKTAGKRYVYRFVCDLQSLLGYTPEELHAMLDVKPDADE", "assay": "ETS1 binding intensity (PBM fluorescence) (arbitrary fluorescence units); higher = stronger binding", "settings": "ETS1 concentration 10 nM", "method": "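gcPBM on wild-type 36-bp genomic probes with two neighbouring ETS1 sites (4-24 bp apart). Recombinant human ETS1 (10 nM) was detected with anti-ETS1 antibody fluorescence. Values are medians over 3 replicate spots. The probes sit in constant array flanks that are not printed.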", "values": [
      {"sequence": "TCCACTCTGCGGAAGCCACGTTCATCCTGCCCTGCC", "ETS1 binding intensity": 586},
      {"sequence": "CAACTTCCTTCTGGAGTGAACATTTAACATCCTGCC", "ETS1 binding intensity": 14000},
      {"sequence": "CTTCATTTCCTCCTTTCTCCTTAACAAGGAAATGAC", "ETS1 binding intensity": 14800},
      {"sequence": "ACGTGACTGCTGCGGAAGGCGGAAGCCGGGAGACTC", "ETS1 binding intensity": 469},
      {"sequence": "ACATCACCCTTCCGGGGCTCAGGCGGAAGAGGCTGC", "ETS1 binding intensity": 3970},
      {"sequence": "CCCGCATCCGGCGCCAGCAGCCGGGGTTTCCGAGCC", "ETS1 binding intensity": 39200},
      {"sequence": "CCGACCAGCTTCCGGGGCGGGACTTCCGGTCGTGGG", "ETS1 binding intensity": 36700},
      {"sequence": "TTGTTTCAGGAAGTGCTTTCTGTAAGGATGTTAGGG", "ETS1 binding intensity": 2270},
      {"sequence": "TAAGTTTCCTGAGGCCTCCCAGCCATGCTTCCTGTA", "ETS1 binding intensity": 5090},
      {"sequence": "TCATGGTGGGCAGGAAGACATTTCCGTTACCCTGGG", "ETS1 binding intensity": 3150},
      {"sequence": "AGGTGCTTCCTGTAGATGTGTATCTGAGGAAATGGA", "ETS1 binding intensity": 19800},
      {"sequence": "AAGGGAGTGTTTCCTGTGGGCCGGATGAAGATCTCA", "ETS1 binding intensity": 14400},
      {"sequence": "GTCTCAGCATCCTGGCCATGTGATTTCCTGCCACGC", "ETS1 binding intensity": 6580},
      {"sequence": "AGCTACTTCTTCCTGGCAGAGACCGGAAGTGCGGTC", "ETS1 binding intensity": 13800},
      {"sequence": "CTTTACAGGAAGTGGCTGATATGGCTTCCTGCTGCA", "ETS1 binding intensity": 12000},
      {"sequence": "GTGGGAGGAAGATGAACCACATGCCACTTCCTCTCT", "ETS1 binding intensity": 915},
      {"sequence": "AACGTCCAGGAGGAAGTCAATTTCCTGGCCCTCAAT", "ETS1 binding intensity": 5100},
      {"sequence": "ACTCCCCGCGGAAGTGCTCACACCGGAACCCCTCTG", "ETS1 binding intensity": 1490},
      {"sequence": "CTCACCTACTTATCCGTTGTAGGAAATTGCATTCCC", "ETS1 binding intensity": 419},
      {"sequence": "GTTCGTTGCTCCCGGAACCGGAAGTCCGCTGCCTGC", "ETS1 binding intensity": 8960},
      {"sequence": "CACCGGAAGCCAGCTGGGTGTGGGGAGAGGATGTGA", "ETS1 binding intensity": 10100},
      {"sequence": "GAATTGAACAGGAAACATTCACGGGAAATCTGCAGG", "ETS1 binding intensity": 2610},
      {"sequence": "GCGCCGTTTTGTTCCGCTCCGCGGAAGGCGTGTCCC", "ETS1 binding intensity": 334},
      {"sequence": "AGTTAGGATGTCTGTGTCATCTGCCATTTCCTCTTT", "ETS1 binding intensity": 532},
      {"sequence": "AGTTCACTGCAGCTTCCTCCTTCCTGGGCTCAACCA", "ETS1 binding intensity": 1730},
      {"sequence": "TTTAGCAAGGAAGCAAATGCCCACATCCTGTCATTA", "ETS1 binding intensity": 3070},
      {"sequence": "TCTTGAAGGAAGTGGCCTTGTGTCACTTCCGGCCTC", "ETS1 binding intensity": 12600},
      {"sequence": "TGAAGTGCAGGAAGAGCCAGCTGCGGAAACGGAGGC", "ETS1 binding intensity": 392},
      {"sequence": "TGTTGCCGGATCTGCCCCCACTCCCTTCCTGTTGTG", "ETS1 binding intensity": 746},
      {"sequence": "AAGGGAATCTGGGAAATGTAGTTTCCTGCAATCCAG", "ETS1 binding intensity": 540},
      {"sequence": "CAGGCACCTGTATTTCCGTTTCCGGTTCGCCTCCGG", "ETS1 binding intensity": 22100},
      {"sequence": "TCGGGTTCCGGGGCGGGCTGGGCCGGCGGAAGGGGT", "ETS1 binding intensity": 1410},
      {"sequence": "CACATGCATTTCCTTTTGGGGAGTTTCCTTCTGGGC", "ETS1 binding intensity": 8200},
      {"sequence": "GCCGCTCTCCCTCGGAAGCCGGAAGTCGGCTTCTAG", "ETS1 binding intensity": 9610},
      {"sequence": "GCGCGAGGCCGGGAAACCAGGTTCCGGCCCCACCAA", "ETS1 binding intensity": 760},
      {"sequence": "AAAAGAGTGTGTTTCCTGGCTTCCTGAGAACTGGGG", "ETS1 binding intensity": 3570},
      {"sequence": "GGTGCGGAAGTCGCTCCAGGGGTCACTGGGAAGTGT", "ETS1 binding intensity": 5620},
      {"sequence": "TCGGCAGGAAACATCTTGGCAGGACAGGAAGCGCGG", "ETS1 binding intensity": 2010},
      {"sequence": "CAGTCTTGGCGGGAAACGCCGCGGAAGACGCTTCTC", "ETS1 binding intensity": 183},
      {"sequence": "TTCACCCCACCACTTCCTCATCCTGATCTCAGCTCA", "ETS1 binding intensity": 2880},
      {"sequence": "TTGCAGAATAACAGGAAGAGGAAGTTGTTATCTGTT", "ETS1 binding intensity": 2010},
      {"sequence": "AAAACGTGCTTCCGGTTCTCGGCGGAAGTAGCCCCG", "ETS1 binding intensity": 47600},
      {"sequence": "CTAAGAAGGGGGAAATGGTCTCTTTCCTGGGTGGTA", "ETS1 binding intensity": 423},
      {"sequence": "AGCCCTGCAGGATGTGACTCAGCATCCTGTCTCAGT", "ETS1 binding intensity": 6810},
      {"sequence": "GCCGAGGAGCCGGAAGAGAGGCGGAAAGGGCAGCAG", "ETS1 binding intensity": 4960},
      {"sequence": "GGGAGGAAATGGGGCGAAACCTCAGGAGGGATGTGG", "ETS1 binding intensity": 554},
      {"sequence": "TTACCGCCGCTTCCGGGGGCGCAGGAAATGCGCGTT", "ETS1 binding intensity": 18600},
      {"sequence": "CCCGACTTCCTGCCCCGCCAGAGCCAGGAAGCGGGA", "ETS1 binding intensity": 43600},
      {"sequence": "TGGGCTTCCTGGCGTGGGGCCTCCGCCCTTCCTGTC", "ETS1 binding intensity": 6360},
      {"sequence": "GTCCGTCAGAACCGGAAGCGGAAGCCCCAGGGAGGG", "ETS1 binding intensity": 15600},
      {"sequence": "AGTAGCACCCAACTTCCTGGGGAAATGATTCAGATT", "ETS1 binding intensity": 7230},
      {"sequence": "CTCCAACCCGGAAACGCGCGGCTCTTCCGGCCGGCG", "ETS1 binding intensity": 10000},
      {"sequence": "TTGTGCTTCCGCTCGGGGAAAGACCGCTTCCGGTGC", "ETS1 binding intensity": 33300},
      {"sequence": "CCAACATCCTGTCTTTGTGAAGCAGGGTTTCCTGCA", "ETS1 binding intensity": 46600},
      {"sequence": "CTCATAAACAGGAAGAAGTGAGCGGATGCTGCTACT", "ETS1 binding intensity": 3010},
      {"sequence": "CTCAATGGAGCTTCCGTCCGTTTCCCATGGTGCCCT", "ETS1 binding intensity": 3900},
      {"sequence": "TGGAGCGTTCCGCTCTGTGAGCCCCATCCGGGCCCA", "ETS1 binding intensity": 294},
      {"sequence": "TCTACTTCCGGTTTGCCTGTGAATTCTTTCCTGGGC", "ETS1 binding intensity": 153000},
      {"sequence": "AATGAACAGGAAATGGTCATTAACATCCTGCAAATG", "ETS1 binding intensity": 20600},
      {"sequence": "CGCCTTCCGTCTATGGCTTGGGGTCGGCTTCCGTCC", "ETS1 binding intensity": 5130},
      {"sequence": "ACAATTAAAGAGGAAATAGACAGGAAGCAGAGCTCA", "ETS1 binding intensity": 2830},
      {"sequence": "GAAGTAGCAGCTTCCTCAAGCAGGAAGTAGGAAAAG", "ETS1 binding intensity": 6100}
    ]}
  ]
}
